The record followed here is article PMC4336329 (PLoS ONE, 2015).

Among all 310,000 compounds or so, about 14,000 (4.5%) showed an effect of 50% or more. The effect is printed as a negative number. Some of the results follow.
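Further: peak tail current of the secondary pulse compared with the same well before compound.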

For the assay, the target named is human ether-à-go-go-related gene (hERG) potassium channel (human, UniProt Q12809). Kind of assay: primary screen, population patch clamp on CHO cells stably expressing hERG.
Sequence of human ether-à-go-go-related gene (hERG) potassium channel (Q12809 whole entry, looked up): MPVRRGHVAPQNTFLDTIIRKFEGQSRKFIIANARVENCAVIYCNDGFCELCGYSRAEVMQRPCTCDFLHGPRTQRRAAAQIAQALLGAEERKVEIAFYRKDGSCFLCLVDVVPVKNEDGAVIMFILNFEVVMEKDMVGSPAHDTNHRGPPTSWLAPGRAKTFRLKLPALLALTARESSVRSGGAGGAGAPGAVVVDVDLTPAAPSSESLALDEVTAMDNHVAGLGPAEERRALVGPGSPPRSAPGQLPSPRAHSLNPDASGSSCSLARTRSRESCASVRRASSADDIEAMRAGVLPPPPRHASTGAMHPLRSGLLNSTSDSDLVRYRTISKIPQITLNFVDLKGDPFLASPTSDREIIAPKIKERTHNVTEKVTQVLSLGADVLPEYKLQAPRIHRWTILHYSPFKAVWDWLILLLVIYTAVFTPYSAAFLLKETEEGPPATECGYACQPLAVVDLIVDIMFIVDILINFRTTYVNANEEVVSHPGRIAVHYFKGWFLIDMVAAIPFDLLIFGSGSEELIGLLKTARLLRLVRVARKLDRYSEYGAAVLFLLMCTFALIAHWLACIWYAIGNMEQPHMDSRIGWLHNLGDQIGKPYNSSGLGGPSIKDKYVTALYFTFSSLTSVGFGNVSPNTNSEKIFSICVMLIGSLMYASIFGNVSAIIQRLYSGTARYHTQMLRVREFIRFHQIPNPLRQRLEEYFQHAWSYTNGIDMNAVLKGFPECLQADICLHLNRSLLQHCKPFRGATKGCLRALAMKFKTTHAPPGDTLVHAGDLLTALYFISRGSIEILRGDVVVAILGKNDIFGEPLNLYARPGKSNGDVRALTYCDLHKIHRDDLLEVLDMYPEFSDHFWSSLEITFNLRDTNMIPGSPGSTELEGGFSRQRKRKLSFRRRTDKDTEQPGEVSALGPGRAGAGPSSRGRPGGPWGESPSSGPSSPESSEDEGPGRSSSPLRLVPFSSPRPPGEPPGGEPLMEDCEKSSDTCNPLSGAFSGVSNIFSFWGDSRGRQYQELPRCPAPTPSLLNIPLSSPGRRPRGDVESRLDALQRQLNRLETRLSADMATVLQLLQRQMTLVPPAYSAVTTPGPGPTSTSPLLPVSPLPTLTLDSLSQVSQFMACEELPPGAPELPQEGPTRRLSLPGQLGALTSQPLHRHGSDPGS
As for `COc1ccc(NC(=S)N2CCN(CCN3C(=O)c4cccc5cccc(c45)C3=O)CC2)cc1`, the “hERG current change (%, negative = inhibition) at 10uM” value came out at 3.54%.
Take `Cc1ccc(NC(=O)CCC(=O)NNC(=O)/C=C/C(=O)O)c(C)c1`: the “hERG current change (%, negative = inhibition) at 10uM” value stood at 1.99%.
As for `COc1ccccc1P(=O)(c1ccccc1)c1ccc([N+](=O)[O-])cc1` (stereo not drawn), the figure is -15.1%.
Next, `Cc1ccc2c(Cl)cc(Cl)c(OCC(=O)NCCc3ccccn3)c2n1`: -42.7%; `CCCN1CCN(C(=O)C2CCN(S(=O)(=O)c3ccc4c(c3)NC(=O)C(C)S4)CC2)CC1` (stereo not drawn): 14.9%; `CC(C)CCNC(=O)c1cnn2c(C(F)(F)F)cc(-c3ccco3)nc12`: -14.6%.
As for `Cc1nn(C)cc1-c1csc(N)n1`, the figure is 15.2%; as for `Cc1nn(C)cc1C(C(=O)NC1CCCCC1)N(C(=O)Cc1cccs1)c1ccc(F)cc1` (stereo not drawn), 7.57%.
With `CCOC(=O)c1c[nH]c2c(C)cc(C)cc2c1=O`, the “hERG current change (%, negative = inhibition) at 10uM” value was -0.349%.
Next, `CCOC(=O)C1=C(C)NC(=O)C1(NC(=O)c1cccnc1)C(F)(F)F` (stereo not drawn): 5.76%; `CC1=C(C(=O)Nc2ccc(CC(=O)NCc3ccccc3C)cc2)SCCO1`: 18.7%.
As for `Cc1ccc(-n2cccc2/C=C2/C(=N)N3C(=NC2=O)SN=C3S(C)(=O)=O)cc1Cl`, the figure is 6.18%; as for `Cn1nc(-c2ccccc2)c2cc([N+](=O)[O-])ccc21`, 11.3%.
As for `O=C(CNC(=O)c1ccco1)NCCCc1ccccc1`, the figure is 9.83%; as for `Cc1ccc2nc(NC(=O)c3ccco3)sc2c1`, 0.24%; as for `CC1CC(C)(C)n2c(O)c(N=NC(N)=S)c3cccc1c32` (stereo not drawn), 16.4%.
As to `CCC(C)n1c(OC)nc2c1c(=O)n(C)c(=O)n2C` (stereo not drawn), the “hERG current change (%, negative = inhibition) at 10uM” value is on record as 7.19%.
Next, `CCc1nnc(NC(=O)Nc2ccc(OC)cc2)s1`: 5.19%.
Next, `CCCCCOC(=O)CSc1n[nH]c(=O)[nH]c1=O`: -12.2%.
As for `CCN1c2nc3c(C)cccn3c(=O)c2CC2(C(=O)N(C)C(=O)N(C)C2=O)C1C` (stereo not drawn), the figure is 7.98%.
Take `OCCNc1c2ccccc2nc2ccccc12`: the “hERG current change (%, negative = inhibition) at 10uM” value is -31%.
As for `CCc1nn(C(C)C(=O)Nc2cccc(C)c2C)c(=O)c2cc3occc3n12` (stereo not drawn), the “hERG current change (%, negative = inhibition) at 10uM” value is recorded as -0.753%.
As for `COc1ccc(S(=O)(=O)NCC(=O)N(CC(=O)NCc2ccco2)Cc2ccccc2)cc1`, the figure is -10.6%; as for `COC(=O)C1=C(C)N(c2ccc(Cl)cc2)/C(=C/c2cccs2)C1=O`, -6.79%.
As for `CCOc1ccc(NC(=S)NNC(=S)Nc2cccc(C(F)(F)F)c2)cc1`, the figure is 21.6%.
Next, `COc1ccc(CC(=O)N2CCOCC2)cc1OC`: 4.62%; `COc1ccc(/C(O)=C2/C(=O)C(=O)N(Cc3ccco3)C2c2cccs2)cc1` (stereo not drawn): 9.46%; `CCOC(=O)CC(NC(=O)C1c2ccccc2Oc2ccccc21)c1ccc(C)cc1` (stereo not drawn): 5.66%.
On to `Cc1cc(=O)[nH]c(SCC(=O)NCC2CCCCC2)c1C#N`, for which the “hERG current change (%, negative = inhibition) at 10uM” value came to 11.4%.
Next, `COCCNC(=O)CN1C(=O)c2cccc3cccc1c23`: 12%; `Cc1cc(C)n(CCNC(=O)c2cc(COc3ccc4ncccc4c3)on2)n1`: -3.15%; `COC(=O)CSc1nnc(-c2cnccn2)n1C`: -10.3%.
With `O=C(CSc1nnnn1C1CCCC1)Nc1ccccc1F`, the “hERG current change (%, negative = inhibition) at 10uM” value is -25.7%.
As for `CCOc1ncccc1C(=O)OCC(=O)c1c(N)n(C)c(=O)n(C)c1=O`, the figure is -9%.
As for `CSc1ccccc1C(=O)NCC1CCCO1` (stereo not drawn), the figure is -11.8%; as for `O=C(Nc1ccc(Cl)cc1)ON=C1CCCC1`, 2.62%.
As for `CCCCCSc1nc(O)cc(=O)[nH]1`, the figure is 10.7%.
Take `CCCN1C(=O)C(NC(C)=O)c2ccccc21` (stereo not drawn): the “hERG current change (%, negative = inhibition) at 10uM” value was 0.495%.
For the molecule `COc1cc(/C=C/C(=O)OCc2cn3cc(Cl)ccc3n2)ccc1O`, the “hERG current change (%, negative = inhibition) at 10uM” value was -5.17%.
As for `CC1(C)CC(=O)C(C=NC2CCCCC2)=C(O)C1`, the “hERG current change (%, negative = inhibition) at 10uM” value is -10.2%.
As for `CCCOC(=O)N[C@@H]1C(=O)N2C(C(=O)OCCC)=C(C)CS[C@H]12`, the figure is -2.92%.
With `O=C(N/N=C/c1c(O)n(-c2ccccc2Cl)c(=O)c2ccccc12)C1COc2ccccc2O1` (stereo not drawn), the “hERG current change (%, negative = inhibition) at 10uM” value is 25.6%.
`COc1ccc(CC(=O)Oc2ccc(C)cc2C)cc1`: the “hERG current change (%, negative = inhibition) at 10uM” value is -2.18%.
Next, `CCOc1cc(/C=N/NS(=O)(=O)c2ccccc2)ccc1OS(=O)(=O)c1ccc(C)cc1`: 2.1%.
Consider `CCOC(=O)N1CCC(NC(=O)c2cccc3c2C(=O)N(CCOC)C3)CC1`, for which the “hERG current change (%, negative = inhibition) at 10uM” value is listed as -1.34%.
As for `O=C(/C=C/c1ccccc1)C1C(=O)c2ccccc2C1=O`, the figure is -0.201%; as for `COc1ccc(N/N=C(\C#N)C(N)=O)cc1`, 18%; as for `CCNC(=S)N1CCN(S(=O)(=O)c2ccc(C)cc2)CC1`, 5.89%.
Next, `O=C1c2ccccc2C(=O)C1Cc1cccc2ccccc12`: -17.8%.
On to `Cc1ccc(-c2nc3ncccc3o2)cc1NC(=O)c1ccccc1`, for which the “hERG current change (%, negative = inhibition) at 10uM” value is on record as -0.0328%.
Next, `CN1c2ccccc2C(=O)NC1c1ccc(Cl)cc1` (stereo not drawn): 10.8%; `Cc1cc(NCC(c2ccccc2)c2ccccc2)n2ncnc2n1`: -40.7%; `Cc1c(C(=O)Nc2ccc3c(c2)OCCO3)sc2ncnc(N3CCCCC3C)c12` (stereo not drawn): 11.6%.
Next, `O=C(c1ccc(S(=O)(=O)Nc2cccc(C(F)(F)F)c2)cc1)N1CCOCC1`: 16.8%.
Next, `Cc1cccc(NC(=O)CC2C(=O)NCCN2C(=O)Nc2ccc(Cl)cc2)c1` (stereo not drawn): 12%; `Cc1nn(-c2ccccc2C(F)(F)F)c(=O)c2noc(C)c12`: 4.39%; `CCN(CC(=O)Nc1ccccc1C(=O)OC)S(=O)(=O)c1ccc(OC)cc1`: -41.7%.
Regarding `CCOC(=O)N1CCN(CC(O)c2ccccc2)CC1.O=C(O)C(=O)O` (stereo not drawn), the “hERG current change (%, negative = inhibition) at 10uM” value is reported as 2.82%.
As for `Cn1c(Cc2ccccc2)nnc1SCC(=O)Nc1ccc2c(c1)OCCO2`, the figure is -2.8%; as for `Nc1ccccc1Sc1cc(Cl)nnc1Cl`, 3.55%; as for `Cc1ccc(S(=O)(=O)N(C)CC(=O)O/N=C(\N)c2ccccn2)cc1`, 0.257%.
Next, `CCCCn1c(N)c(N(CC(C)C)C(=O)CN(C)Cc2cccc(OC)c2)c(=O)[nH]c1=O`: -3.67%; `Cc1ccc(-c2cc(=O)[nH]c(NCc3ccccc3)n2)cc1`: 14.5%; `COCCCn1c(SCC(=O)Nc2ccc(NC(C)=O)cc2)nc2sc3c(c2c1=O)CCC3`: 19.5%.
Consider `Cc1cccc(NC(=S)N(C)C2(c3ccccc3Cl)CCCCC2=O)c1` (stereo not drawn), for which the “hERG current change (%, negative = inhibition) at 10uM” value is listed as 2.34%.
Next, `COc1ccc(C2CC(c3ccc(Cl)c(Cl)c3)Nc3nc(N)nn32)cc1` (stereo not drawn): -18.6%; `CS(=O)(=O)N(CC(=O)NCc1ccc2c(c1)OCO2)C1CCCCC1`: -3.33%.
As for `Cc1cc(NC(=O)c2ccc(C)c([N+](=O)[O-])c2)no1`, the figure is 31.2%.
With `N=C1/C(=C\c2ccc(-c3cc(Cl)cc(Cl)c3)o2)C(=O)N=C2SC=C(c3ccccc3)N12`, the “hERG current change (%, negative = inhibition) at 10uM” value is -26.1%.
Next, `CCCn1c(CCC(=O)O)nc2cc(S(=O)(=O)N(CC)CC)ccc21`: -1.79%.
Next, `COC(=O)c1ccc(N2CCC(c3cc(-c4ccc(OC)cc4)n[nH]3)CC2)c([N+](=O)[O-])c1`: 25.2%; `CSc1ncccc1C(=O)N1CCCC(CCC(=O)NCc2ccc(F)c(F)c2)C1` (stereo not drawn): 6.61%; `O=C(NCc1cccs1)C(=O)NCC1OCCCN1S(=O)(=O)c1cc(F)ccc1F` (stereo not drawn): -6.05%.
Consider `CCOC(=O)c1ccc(-c2ccc(C=O)o2)cc1`, for which the “hERG current change (%, negative = inhibition) at 10uM” value is on record as 16.6%.
As for `COc1ccc(C)cc1-n1nnnc1SCc1csc(C)n1`, the figure is -16.2%; as for `CC1(C)Cc2nc3sc4c(SCC(=O)NCc5ccco5)ncnc4c3cc2CO1`, 5.23%.
Next, `O=C(Nc1nc(-c2cc3ccccc3oc2=O)cs1)c1ccco1`: 9.4%; `Cc1cccc(N(CC(=O)NC(C)(C)C)C(=O)CS(=O)CC(=O)Nc2ccc3c(c2)OCO3)c1` (stereo not drawn): 20%.
Turning to `O=C(Nc1ccc(NS(=O)(=O)c2ccccc2)cc1)c1ccccc1`, the “hERG current change (%, negative = inhibition) at 10uM” value is recorded as 15.7%.
As for `CN(C)c1ccc(C=Nc2ccccc2)cc1`, the figure is 8.33%; as for `O=C1[C@H](O)[C@@H](O)C(=O)N1Cc1ccccc1`, 20.6%.
As for `Cn1cccc1C(=O)C(=O)Nc1ccccc1C(F)(F)F`, the figure is 20.8%; as for `COC(=O)c1ccc(C(=O)N2CCCC(Nc3ccc(C(C)C)cc3)C2)cc1` (stereo not drawn), -6.85%; as for `COc1ccc(C(c2nnnn2CC2CCCO2)N2CCN(c3ccc(F)cc3)CC2)cc1.Cl` (stereo not drawn), -44.2%.
As for `O=C(CSc1nc2ncc(Br)cc2[nH]1)Nc1ccc2c(c1)OCO2`, the figure is 15.7%; as for `O=C(COc1ccc(F)cc1)N(CC1=CCS(=O)(=O)C1)c1ccccc1`, -11.9%; as for `COC(=O)C1=C(C)NC(=O)NC1c1ccc2ccccc2c1` (stereo not drawn), 13.8%.
Consider `CCOC(=O)C1(Cc2ccccc2C(F)(F)F)CCN(C2CCN(C(C)C)CC2)CC1`, for which the “hERG current change (%, negative = inhibition) at 10uM” value is listed as -36.6%.
As for `CCOC(=O)c1cc(-c2ccc(C)o2)n[nH]1`, the figure is 13.8%; as for `COc1ccc(C(=O)OC(C)CN2CCN(C)CC2)cc1.Cl` (stereo not drawn), 5.05%.
